# Measurements taken from publication PMC12136788.
# Some of the results follow.
# T1: UNK ZnF1-3 (human, UniProt Q9C0B0 31-174)
# T1 sequence: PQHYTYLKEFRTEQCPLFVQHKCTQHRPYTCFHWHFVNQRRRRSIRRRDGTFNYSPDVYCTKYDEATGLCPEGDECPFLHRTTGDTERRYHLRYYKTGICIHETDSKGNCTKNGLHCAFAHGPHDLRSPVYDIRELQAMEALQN
# B1: 151522430_151522550_435_CDS_ENSMUSG00000034021_ENSMUST00000016569|mouse|control|control (ssRNA)
# RNA: GGGAGUUCUACAGUCCGACGAUCAAUAUCAGCAAGGCAGCAAGCCACCAGUAAACGAACAUCUUUAUCAGGAUGCUUGAGGAAGAAGUCAGAAGCAAGAUGUAAAGCUAGGUUUAGAUAAAGUUCCUUUUCCUCUUCAGAGUCCAACAGAGGAUUGAGCAUCA
# B2: 103134005_103134125_2386_CDS_ENSMUSG00000033014_ENSMUST00000106860|mouse|control|control (ssRNA)
# RNA: GGGAGUUCUACAGUCCGACGAUCACUGUGCCUGGGGAUCCCUGGUAUUCUGGCAGCAUUCUGAGCCAGUCUCAUUUGAUGGGCUUGAAAUGCUCCACAGUUCAUGUUGCCUCUUUGCAUUGUUUGCACACUGAUCAAUCUUGGCAACAGAGGAUUGAGCAUCA
# B3: chr11:87044496:87044497:-_ENSMUSG00000046442_ENSMUST00000055438|mus_mus|motif|central (ssRNA)
# RNA: GGGAGUUCUACAGUCCGACGAUCGCAUGGAAUAUCAUUACGCUUUCUGAUCUUCACAUUUCCACUAUAUCCUUCCCAACGGUUUUCCCUCCAUGGCAAAGAACUUCUUAACAUCUUGUUUCUCUUCCCACUUCGAGUAAGUGACAACAGAGGAUUGAGCAUCA
# B4: chr4:115894766:115894767:+_ENSMUSG00000028698_ENSMUST00000030464|mus_hu|mus_mus_mus_hu_True|8_28 (ssRNA)
# RNA: GGGAGUUCUACAGUCCGACGAUCUUCCACACGGAAAUGUACUUCGGGUUUUCCAACGGCCAGUACCAGUCCGGCCAAACUACCCGAACAGGGUCCUCCCCCUCUCUUCUCUCCUCCACAACAAAAUAACAAAAUACUUUCAAGCAACAGAGGAUUGAGCAUCA
# B5: chr2:117004238:117004239:+_ENSMUSG00000027351_ENSMUST00000028829|mus_mus|FALSE|FALSE (ssRNA)
# RNA: GGGAGUUCUACAGUCCGACGAUCUUAACUACUCAACACAUAUGGAAUGUGGUGGCAGAUAUGUGCACAUCUACCUCAGAACUAGGAAGGGCAAGAAAAGUUUAAUAUGUCAUAGUUCGUACCUUACAUUUAGUUAAAUAUAAACAACAGAGGAUUGAGCAUCA
# B6: chr6:86333760:86333761:-_ENSG00000135316_ENST00000355238|hu_mus|hu_hu_hu_mus_True|18_18 (ssRNA)
# RNA: GGGAGUUCUACAGUCCGACGAUCUUCCUCAAGAAUCUGCUCCUUGGUUUUACUCUUAGGAAUCGAGCCCACAAAAAGCCUAUUGUUGGCAACUGAGAUGCAGACACCAAUGUGCUUUCCAGAACGAAUUUCAUGAUUAUUAUACAACAGAGGAUUGAGCAUCA
# B7: chr11:18422405:18422406:+_ENSG00000134333_ENST00000379412|hu_hu|FALSE|FALSE (ssRNA)
# RNA: GGGAGUUCUACAGUCCGACGAUCCAGCUUGGAGUUUGCAGUUACAUUAUAGUCUUUGCCAGAGACAAUCUUUGGUGUUCUAAGGAAAAGGCUGCCAUGUUGGAGAUCCAUCAUCUCUCCCUUCAAUUUGUCUUCGAUGACAUCCAACAGAGGAUUGAGCAUCA
# B8: 134633536_134633656_1219_CDS_ENSMUSG00000042423_ENSMUST00000048896|mouse|control|control (ssRNA)
# RNA: GGGAGUUCUACAGUCCGACGAUCUGGUGGUGGAGGAGCCAAACGGCUGUAUAGCAGUGGAUGAGCAGGGUCUAGACUAUAGAGGCGGGCAGCAGCCAUGGCCCCUGGUCCAGUCAACUCCUCACCUGCCUCAUAGAAGCGUGGCAACAGAGGAUUGAGCAUCA
# B9: chr4:140556289:140556290:+_ENSMUSG00000036622_ENSMUST00000037055|mus_mus|mus_mus_mus_hu_False|48_58 (ssRNA)
# RNA: GGGAGUUCUACAGUCCGACGAUCGAUGGAGCUCACCAGGCCCCCUUUUGCCGUGCAGAACCCUGUGCGGGUCACCACUGCUAGCACACGGGGUCCCACAUAGGCCCGGGCCUGCAAGAUGAGGGUCCCGCAGAAGAGUGUGUGCAACAGAGGAUUGAGCAUCA
# B10: 78622650_78622770_146_3pUTR_ENSG00000078596_ENST00000373298|human|control|control (ssRNA)
# RNA: GGGAGUUCUACAGUCCGACGAUCACGUCUUGCCGCGCCUCCUCCUUUUGCACGGCGGUAGGGGUAUUGAAGGCGAUUUUCACCAUAGUGAAUCUUCGGGCUGCGCGGUAAGGCGCUGCUGGAAUCAGCGUCCUGGGCUGCAGACAACAGAGGAUUGAGCAUCA
# B11: chr16:46732117:46732118:+_ENSG00000091651_ENST00000219097|hu_hu|motif|central (ssRNA)
# RNA: GGGAGUUCUACAGUCCGACGAUCCAAGGGACUGCCAUUCACUUAAAGCAAAAUGGCUCCAAUUCCGUUUAUCUAUCGGUCGGUCGGUCUAUCUAUCUAUCCAUCUAUCUAUCUAUCUAUCUAUAAGUCUCGCUCUGUCACCCACAACAGAGGAUUGAGCAUCA
# B12: chr9:14812383:14812384:-_ENSMUSG00000031934_ENSMUST00000164273|mus_mus|mus_mus_mus_hu_True|88_98 (ssRNA)
# RNA: GGGAGUUCUACAGUCCGACGAUCAUAGCCCAGGUAGAUACAUGCCAACAGUAUAACGAUGAGUGUCAGCAGGCGGCAGCUAAUGUACUUGAUGAUUAAAUUAUUAGAAUUUUUCUUUGUCUUCAAGUACUGCUCCACAAUUGGCAACAGAGGAUUGAGCAUCA
# B13: chr12:39763582:39763583:-_ENSG00000139116_ENST00000544797|hu_mus|hu_hu_hu_mus_False|18_78 (ssRNA)
# RNA: GGGAGUUCUACAGUCCGACGAUCCUCUAGGAACUGGGCAUUCACUUUGAAUUCAGGAGCAGGAAGCCCGUUUUUAAUCGCUGAGGUCUUUUUCUCAUCAAUACUCUUGAACAGGUGUUUAACAGCUCGAGAGAUGAUGCCCUGCAACAGAGGAUUGAGCAUCA
# B14: chr17:65740002:65740003:+_ENSG00000130935_ENST00000581375|hu_hu|hu_hu_hu_mus_False|38_68 (ssRNA)
# RNA: GGGAGUUCUACAGUCCGACGAUCAACAAAUCUUUCUUCCCUGGACGAACAGGAAGAUUCAUAUUAACUUUAUAAAAUAUCCAUCAAGUUAGGUGUGUAAUAUCAGACUUUACUCCCAGCACUUUGGGAGGUGGAUCUCUGAGUCAACAGAGGAUUGAGCAUCA
# B15: chr4:130320001:130320002:+_ENSMUSG00000028580_ENSMUST00000105991|mus_mus|motif|central (ssRNA)
# RNA: GGGAGUUCUACAGUCCGACGAUCCGCAGCCUGGAGGAUUUCAUUGAAGACAAGCUGGCGCUCAGCUGCUGUGGCACGCUCGGGUUUCAGCUGAAUGAAUCUAGAGCCAUGCUGGUCUUGAGAAAAUUCCAUUAUAUGCCCAGCCAACAGAGGAUUGAGCAUCA
# B16: chr1:46159212:46159213:+_ENSG00000159596_ENST00000372025|hu_mus|hu_hu_hu_mus_True|8_48 (ssRNA)
# RNA: GGGAGUUCUACAGUCCGACGAUCUCUGAUCCCUCCCAAGAAAGCUAGGAAACCGGCUCCAUAAGCCAUCUGAGUGAAAGCUAGGACGGGAAUAUAAGACUUUGUUAUUACCAUGAGAAGUGGGGGAGCAACGAAGGGGAUUAACAACAGAGGAUUGAGCAUCA
# B17: chr13:100192331:100192332:-_ENSMUSG00000052727_ENSMUST00000064762|mus_hu|FALSE|FALSE (ssRNA)
# RNA: GGGAGUUCUACAGUCCGACGAUCGCAAAUGAUUAAAUCUUAAUUAAAUGAGUAUUGGAAAGCUCCUAGACUGCAUAAGCUAUUGGAGACACUUAAAACAUUCAUAUACACUGGGGAAACCAUUCACUAUGAUAUGUAACGUUACAACAGAGGAUUGAGCAUCA
# B18: chr16:32084594:32084595:-_ENSMUSG00000023791_ENSMUST00000096109|perfect_dup|FALSE|FALSE (ssRNA)
# RNA: GGGAGUUCUACAGUCCGACGAUCAGGAAGCAUUUAACUACAUAAAACUUAUAGGGAAAAAUGGCCAUAUUUGAAAACUGCUACAAGGAUCAAUGUAGAGCACAGGAUUGUAAUGAGCAGAGUCACAGAACAUACUAGAGAGGUCAACAGAGGAUUGAGCAUCA
# B19: chr5:80785125:80785126:-_ENSG00000145687_ENST00000509013|hu_hu|motif|central (ssRNA)
# RNA: GGGAGUUCUACAGUCCGACGAUCUGGCUGACUUCCUGGGACACCUCCAAGUGCCUGAAAGAACCCUGGUGGUACAGGACCGGCUGGCAUGCCAUCUCCUGGGGGAAUGUUUCCUAGCACUGGACUGGGAGCUGCUGCAGCACUCAACAGAGGAUUGAGCAUCA
# B20: chr3:57569730:57569731:-_ENSG00000168374_ENST00000303436|hu_mus|motif|central (ssRNA)
# RNA: GGGAGUUCUACAGUCCGACGAUCAUAUUCUACUGUUUCCACAUUAAAACCAAUGGUAGGAAUGGUGGUGACUAUUUCCCCGGAUUUCAGUUUAUACAGAAUUGUCGUCUUGCCAGCAGCAUCCAAUCCAACCAUCAAAAUGCGCAACAGAGGAUUGAGCAUCA
# B21: chr1:174973770:174973771:+_ENSG00000116161_ENST00000406752|hu_mus|motif|central (ssRNA)
# RNA: GGGAGUUCUACAGUCCGACGAUCGAGUUCCGUCUCAAUCUUGGACUUUUCACUUGUAAGAGUAUCACGUAGUCUUUUCCGGGUGGACUUUUCCAGCAAUACUUUGACCUCUUCUAGGUCUUUCUGCAACUCUUCCAAAACGGACAACAGAGGAUUGAGCAUCA
# B22: chr2:15768762:15768763:+_ENSG00000079785_ENST00000233084|hu_hu|motif|central (ssRNA)
# RNA: GGGAGUUCUACAGUCCGACGAUCGGGCAGAGUGACAUUUAUAACAUAAGGAACACCGUGGAUAUCAAUUCCUCUAGCAGCGGCAUCUGUGCAAAUCAAGAAUCUUACAUCUCCUUUCUUAAAUCUUUCCAAGUUUUGCUUUCUCAACAGAGGAUUGAGCAUCA
# Target: T1, UNK ZnF1-3
# Experiment: nsRBNS (natural sequence RNA bind-n-seq); RBNS binding buffer (assumed for nsRBNS): 25 mM Tris pH 7.5, 150 mM KCl, 3 mM MgCl2, 0.01% Triton X-100, 500 ug/ml BSA, 20 U/ml SUPERase-In, 4 C; UNK is unkempt and MSI1 is Musashi-1; names of the RNAs are library labels; protein concentration not given here; high values mean tight binding
row,Binder,binding signal [enrichment R]
1,B1,1.31
2,B2,0.446
3,B3,0.556
4,B4,1.22
5,B5,0.923
6,B6,0.983
7,B7,0.551
8,B8,1.59
9,B9,0.957
10,B10,0.572
11,B11,0.842
12,B12,1.67
13,B13,1.53
14,B14,0.93
15,B15,1.92
16,B16,1.48
17,B17,1.61
18,B18,1.72
19,B19,0.959
20,B20,0.76
21,B21,0.531
22,B22,1.42
